Legend:
[1] = tested on: MUC1*; assay: Western blot recognition of linearized epitope; type: binding
Protocol: The binding strength of anti-MUC1* antibodies is evaluated by determining their ability to displace NMF7-AB (a MUC1* ligand) from MUC1* immobilized on the plastic surface of a 96-well plate. Because the cancer-selective MUC1* epitope is a conformational epitope, cancer-selective anti-MUC1* antibodies should not recognize MUC1* on a western blot, where the epitope is linearized. MMP9 is a protease that cleaves MUC1 to generate MUC1*. MMP9 is a predictor of poor prognosis for breast cancers. Some cancer-selective anti-MUC1* antibodies, particularly breast cancer selective antibodies, should bind to cells engineered to express MUC1 after they are contacted with MMP9 to convert the MUC1 to MUC1*.

[2] = biological target: PSMGFR C-10 peptide (SEQ ID NO: 3) (Homo sapiens, UniProt P15941); assay: ELISA binding to PSMGFR C-10 peptide
Chain of PSMGFR C-10 peptide (SEQ ID NO: 3) (P15941 1110-1144 limits assumed): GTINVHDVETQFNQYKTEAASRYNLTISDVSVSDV
Text: Cancer selective anti-MUC1* antibodies bind to a membrane proximal conformational epitope within the MUC1* extracellular domain, as described in WO 2020/146902.
The 3C2B1 epitope was mapped more precisely with additional PSMGFR peptide variants (FIGS. 2A, 2B).

B1: 25E6: anti-MUC1* monoclonal antibody that bound to the PSMGFR peptide (antibody, V domains shown)
VH: EVQLVESGGGLVKPGGSLRLSCAASGFTFSSYGMSWVRQAPGKGLEWVATISNGGRHTFYPDSVKGRFTISRDNAKNTLYLQMNSLRAEDTAVYLCVRQTGTEGWFAYWGQGTLVTVSS
VL: DVVMTQTPLSLSVTPGQPASISCKSSQSLLDSDGKTYLNWLLQKPGQSPKRLIYLVSKLDSGVPDRFSGSGSGTDFTLKISRVEAEDVGVYYCWQGTHFPQTFGGGTKVEIK
Does not recognize a linear epitope [1]: 0 | Does not bind C-10 [2]: 0
